Data: the supplement of paper PMC10126150
Values marked as one replicate rest on one cluster of the flow cell; about a third of the high ones do not repeat.

Tested on: ATP
Experiment: switch fluorescence ratio, 500 uM ATP over buffer (Cy3 cluster intensity, sum of 5 cycles each) (fold (ratio)); higher = stronger signal-on switching upon ATP binding; sequences stand for … in TCGTCGGCAGCGTCAGATGTGTATAAGAGACAGTTTTTTTTTTTTTTTTTTTTTTTTT…TC
Details: aptamer strand: ATP DNA aptamer (quencher-CACCTGGGGGAGTATTGCGGAGGAAGG + anchor), 100 nM annealed; ATP concentration: 500 uM; one replicate
Method in brief: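 Values give the fluorescence ratio for each switch-domain sequence, averaged from per-cluster ratios of summed target-cycle to summed buffer-cycle Cy3 intensity. The Cy3-labelled switching-strand clusters sat on a modified Illumina MiSeq flow-cell, were annealed to 100 nM quencher-labelled ATP aptamer, and were imaged in selection buffer, then after 15 min with 500 uM ATP at 22 °C. Five cycles ran with NaOH stripping and re-annealing between them, and clusters outside 100-1000 RFU were excluded.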
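Further: ATP exposure 15 min at 22 °C before imaging.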

| Sequence | switch fluorescence ratio |
| --- | --- |
| CTGAAGTGAC | 2.27 |
| CGCATGGGAG | 1.02 |
| ATCACAATAT | 1.12 |
| ATAGGGAAAG | 0.981 |
| AACATTCAAG | 1.04 |
| AAGCTCTACT | 1.07 |
| GGAGTGCGTA | 1.08 |
| ACAGCTTCTT | 1.01 |
| CGATGACGA | 1.08 |
| CAATTCAGGG | 0.99 |
| AGCCGAGTT | 0.975 |
| GCCGGGCGTC | 0.985 |
| AGGGCTAAT | 1.04 |
| TCTTCAAGGT | 0.965 |
| GGCCTATAGC | 0.987 |
| TTATGTACGG | 1.02 |
| TTTCTGTCGA | 0.997 |
| TGCCACTGAA | 1.07 |
| CTTAACTAGG | 1.06 |
| CAGTATATAA | 0.996 |
| CTACACGCCC | 1.1 |
| GAGAAAGCGC | 1 |
| ACTAAAGCGC | 1.05 |
| CCGACGGACA | 3.73 |
| ACGTGGGCGA | 1.02 |
| TGGGTATAAG | 0.993 |

| Sequence | switch fluorescence ratio |
| --- | --- |
| ATCGGGTAAA | 1.03 |
| TAAACCGCGC | 2.55 |
| AATGTTAGAT | 1.01 |
| GGCGGCTTTG | 1.07 |
| GTACGTCACA | 1.75 |
| CGAGTTGCCA | 0.999 |
| GATGGGGATC | 1.01 |
| GCGGAACGCT | 0.996 |
| CATAGATTGC | 1.02 |
| GCGGCTCATA | 1.03 |
| TGGGCCAACT | 0.973 |
| ATAGATATTT | 1.01 |
| GCTCGTATAG | 1 |
| TTGCGCTTGA | 1.06 |
| AATTCCTATC | 1.03 |
| TCACCGGGCG | 1.12 |
| TACCAAAGGG | 1.05 |
| CCTTCACTGC | 2.05 |
| ACTAGTTCGC | 0.987 |
| TACCGCCACA | 1.41 |
| TTCCGACATG | 1.06 |
| TATGCGTATG | 0.981 |
| ACGACCACCA | 1.6 |
| TCCCAGCTTT | 1.04 |
| TACACTCGGG | 0.977 |
| CGAGAGCATA | 2.44 |

| Sequence | switch fluorescence ratio |
| --- | --- |
| GCCAATGCCT | 1.01 |
| TGACCAAGTG | 0.926 |
| CCAGAAAGCA | 1.06 |
| AGGTTGCTAG | 0.991 |
| AGCACGGGAC | 1.39 |
| ACTGAAGGCG | 1.01 |
| CCTAGAAGTT | 1.01 |
| CCAGCGCCCG | 1.01 |
| GCGTATTGAA | 0.995 |
| GGTGGAGCAC | 0.934 |
| GCCGATTGGT | 0.985 |
| AATCTTGGAT | 0.997 |
| CTATCATGTA | 1.02 |
| ACGTGAGGA | 1.03 |
| TTTCAAGTCC | 0.944 |
| ACTGTGTTCG | 0.948 |
| TGTGGGGCGT | 1.11 |
| CCCGGAATCC | 1.29 |
| CAAAGAAGAC | 1.05 |
| AATACTCCTT | 1.64 |
| AAAGCGTCGT | 0.975 |
| GTGATCGATC | 1.08 |
| TATCCGACTG | 1.05 |
| GGTACTTGCG | 1.02 |
| AATCTATATG | 1.02 |
| ATCATATATG | 1.02 |

| Sequence | switch fluorescence ratio |
| --- | --- |
| TACTATGGTG | 0.981 |
| GAAGGATTTG | 1.04 |
| TTATCCTGAG | 1.15 |
| GGGCAACGTT | 0.976 |
| CGCTTCCTAA | 1.05 |
| CAAAGGCATT | 0.96 |
| TTAAGGACCA | 1.03 |
| GACTGAGTGT | 0.981 |
| CCCAAGGTC | 1.24 |
| TTCCAACGGT | 1.01 |
| AGCTCTTGGA | 0.999 |
| CAAGAATCGT | 1.05 |
| GGCCTAGCAA | 2.13 |
| GCCCCCGTCG | 1.03 |
| TTTTCCTCTC | 1.06 |
| GCAAGCAATA | 3.44 |
| GCCCGTAGCG | 1.17 |
| CGCTTCTGCT | 0.996 |
| ACGCCGTCCG | 1.03 |
| AAGCGAATGT | 0.974 |
| ACTAATTAGA | 1.03 |
| AGAAACGGCA | 1.05 |
| GTCCTGTGTG | 1.05 |
| GGCCCATG | 1.01 |
| AAAGATGCC | 0.903 |
| ATAATCATGG | 1.03 |

| Sequence | switch fluorescence ratio |
| --- | --- |
| GCGTCCGCTT | 1.42 |
| CTGCCAGTCA | 1.05 |
| AAAAGCTAGC | 1.03 |
| GGTCGGCCCT | 1.01 |
| CGTTGAGTGG | 1.06 |
| TGGTGAAGGT | 0.971 |
| AGGACAAGC | 1.02 |
| GTCGCGTTCA | 0.989 |
| GGTTTAACTG | 1.01 |
| ACCACGTTGA | 0.983 |
| ATCGGTCTAT | 0.98 |
| CATGGGGAGA | 1.01 |
| TCAGTACTGC | 1.05 |
| GATAGTACCG | 0.986 |
| TCCTATCTGA | 1.01 |
| ATTCCGGA | 0.976 |
| TGATATAATT | 1.03 |
| ACACGGTAAC | 1.09 |
| CCGTCTGGAA | 1.04 |
| GAAATTACGT | 1.04 |
| AGAAACGATT | 1.05 |
| TTTACTGGT | 1.01 |
| AGAGAAGTTT | 0.999 |
| ACTGAAAGGA | 1.04 |
| AGTAGCTACA | 1 |
| AACTATCTCG | 0.999 |

| Sequence | switch fluorescence ratio |
| --- | --- |
| TACAAAATTA | 1.02 |
| GCCAATTGTC | 1.04 |
| TGAACTGTCT | 1.48 |
| AAAGTAGGCC | 0.967 |
| GTCCCATGGC | 0.985 |
| AAGTCAAACG | 1.02 |
| TGCGTGTGCT | 1.02 |
| TCTCAGGGGG | 1.01 |
| TATATTATTT | 1 |
| TTCGAAAATC | 1.04 |
| TCTGGTTCGT | 0.986 |
| AAGGGTCTCC | 0.983 |
| ATCATCAGGG | 0.968 |
| ATGATACGCT | 1.05 |
| CGAGGGTGAA | 1.01 |
| CGAATATG | 1.13 |
| CATCTAGGAG | 1.02 |
| GGGCTCAGGG | 0.997 |
| GCAATGTGTA | 1.02 |
| CTGGATGGC | 0.992 |
| AGGTTGATGT | 0.973 |
| TCATAACAAA | 0.991 |
| TCTGAGAACC | 1.01 |
| ATAAATGATC | 1.03 |
| GACCCGTTTG | 0.99 |
| GGTGCAGGAA | 1.05 |

| Sequence | switch fluorescence ratio |
| --- | --- |
| AGTCCTCCGG | 1.54 |
| TTTGATAGGG | 0.942 |
| AATGCGAGCC | 1.06 |
| GCTCCTTGTC | 1.07 |
| TTATGCTCCA | 1.01 |
| ATCTAGCCCC | 1.01 |
| TTAGAGAGAG | 1.03 |
| AGGACAAAAC | 1.03 |
| GTGTAAACTA | 1.03 |
| CAGGGCCACG | 0.977 |
| TGCACCTTCC | 1.44 |
| TGAATTGTA | 0.987 |
| TCTCATATTT | 0.988 |
| TATTGGGGTG | 1.07 |
| CAACTTGC | 1.05 |
| AAAACACCCC | 1.22 |
| TTTCTTTTCG | 1.04 |
| ACACTTTTCA | 1.09 |
| TTAGATTTA | 0.995 |
| CACAAGGTTC | 0.996 |
| GCGTAGACGT | 0.986 |
| AAGGTAGCCA | 1.02 |
| CTAGGATGAT | 1 |
| GATATGCTTA | 0.981 |
| GAAGGGTTGC | 0.974 |
| CCATGGGTTA | 0.992 |

| Sequence | switch fluorescence ratio |
| --- | --- |
| AGAACAAACG | 1.19 |
| GGCACGACTG | 0.992 |
| TGATCGAAAG | 1.01 |
| TCTACACCAT | 1.1 |
| TGGAATAGGA | 1.03 |
| GGGTCGCATG | 1 |
| ATTATTGACG | 1.01 |
| GCGAGGACTA | 1.04 |
| CTAATGTATA | 0.988 |
| TCTCGACTTT | 1.01 |
| TTCTTAGTCG | 1.07 |
| AATTAGGGCC | 0.96 |
| AAATGGCACA | 1 |
| CAGGCAGTGT | 0.985 |
| TATTTTATCG | 1.04 |
| ACTGGTAGCT | 1.03 |
| GTGGGGGAT | 1.01 |
| GATAGTTTAT | 1 |
| ATATGCATTC | 1.05 |
